Reference: the supplement of paper PMC11417369
This is one part of the list.

test system: PF3D7_0420300 AP2 domain 1 (GST-tagged); test: gcPBM binding intensity (ln(normalized median fluorescence intensity)); higher = stronger DNA binding
Method in brief: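 GST-fused DNA-binding domains of P. falciparum, expressed in E. coli, were applied at about 25 μg on average for 1 h to an Agilent 4 × 180k array of primer-extended double-stranded 36-bp intergenic genomic probes and negative controls. Binding intensity is the highest Masliner-normalised natural-log median intensity across replicate spots of either probe orientation, measured with Alexa488 anti-GST antibody and a 488 nm scan.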

| Sequence | gcPBM binding intensity (ln) |
| --- | --- |
| CTATTTTAATATTTTACACACCATGTAAAATATATA [CACACA_site5732] | 9.23 |
| TATATATATATAACAACACACACAGATCATAAAACT [CACACA_site8670] | 10.1 |
| TATTTTTTTTCGTAATGTACATAAAAAATGCAAAAA [XGTACX_site8491] | 8.84 |
| ATTATATAATTTAATCGTACACAAATATTTGTTAGT [XGTACX_site5913] | 9.19 |
| TAAGTAATAGTTTGTGCACACTCAAGTATATCATAT [CACACA_site4035] | 9.44 |
| CCATAATTATATGCCAGTACATATTTGTAACAAAAA [XGTACX_site851] | 9.07 |
| TTTATTTTTCATTGGGGTACACAAGTTTATTTTATT [XGTACX_site4263] | 9.39 |
| CTTTTAAAAAAATTCATGCACACGAAATAAAAAGCA [CACACA_site929] | 9.36 |
| TATTATTCCATGTGAAGTACAGAAATATAAATAAAT [XGTACX_site5106] | 9.34 |
| CAAAATATTTTTATAACACACATATATAGAATGTGC [CACACA_site1145] | 9.34 |
| CTTATACAAAAAAAAAGTACATAACATAATAAGAAT [XGTACX_site6782] | 9.76 |
| TTATTTAAAAATAGCACACATTATATATATATATAT [CACACA_site5556] | 9.24 |
| ACAGATGATCAAAATTGTACAGAGTTATATTATATT [XGTACX_site4642] | 9.3 |
| GATAAACCATATATAACACACATATGAATATTGCAA [CACACA_site6735] | 9.57 |
| CACCCATACAGACATACACACACATATATATTAATA [CACACA_site8077] | 9.87 |
| ATATCATATATAAGTCGTACGATGAATAGAATTTTT [XGTACX_site7586] | 9.2 |
| TTTTTATTCGTTAAATGTACAAAAAAAATGTTATAT [XGTACX_site2804] | 9.06 |
| ATACACTAGAAAATTTTATAGTATTATTAATGTTAA [GTGCAC_negctrl_site101] | 9.1 |
| GCTTAGTTATATAACTGTACTATTTTTATTTATATG [XGTACX_site884] | 9.65 |
| ATAAAGTAAGAAGAAATAATGATTTTCATGGAAAAC [XGTACX_negctrl_site322] | 9.33 |
| AAATATAAGTAAATAAATAAATATATAAATATATAA [TGCATGCA_negctrl_site441] | 9.21 |
| AAATACATACATTAATGTACAAATAGAAACACTCTT [XGTACX_site1512] | 9.53 |

| Sequence | gcPBM binding intensity (ln) |
| --- | --- |
| AATAAGATAAGGAAAAGTACTTATAATTAAACTAAT [XGTACX_site1850] | 9.38 |
| CTCATAGTTGGGTGCACACAAAAAATTAAAAAAATA [CACACA_site3032] | 9.32 |
| AATCAAAAAGGAACCATAATATTACAACTATATATA [CACACA_negctrl_site381] | 9.41 |
| TAAAACTTAATGTTTTGTACATATTCTTCTTTATTT [XGTACX_site4271] | 9.28 |
| AAAAAAAAAATTAAATGTACATATATAATATATATA [XGTACX_site7245] | 9.11 |
| GCCATAAAGATATATACACACATAAAAAAAAGTTAT [CACACA_site6674] | 9.62 |
| ATTATTATAGATAAAACACACAATTTTGTTTTCACA [CACACA_site7792] | 9.23 |
| TTAACAAAGAAACACACACACACACCCAAAAAAAAA [CACACA_site516] | 10.2 |
| AAACAATTATTATATTGTACATATATTACATTATTA [XGTACX_site1089] | 9.19 |
| TTATATTTTATTATGTGTACGTATATAATATAATAT [XGTACX_site6230] | 9.24 |
| TATAATATATAAAAATGTACACATAAATATAAGTAG [XGTACX_site665] | 9.54 |
| GTATATATGTTTTATACACACATTAAAGGAAATATA [CACACA_site984] | 9.39 |
| ACTAAATAAATAAATATAATATATAAATATGTATGT [TGCATGCA_negctrl_site583] | 9.32 |
| ACATGCAAGAAGAAATGTACTTAACATCTATATAGA [XGTACX_site7338] | 9.19 |
| AAAATTAATTTATTTACACACAATATTAAAATATTT [CACACA_site7512] | 9.35 |
| TTACATATTCATAAAAGTACATAATTATAAAAGGTA [XGTACX_site906] | 9.3 |
| TTTTATACATATTTTACACACTAAAATATACAGATA [CACACA_site4333] | 9.15 |
| ATATGTATATTTTTGATGTGCTTTTATTTGGTTATT [CACACA_negctrl_site626] | 9.66 |
| CATCCACATAGATGTACACACATATATATATATATA [CACACA_site5616] | 9.44 |
| CTTCATAAAAATTGCACACATATAATAATGTACATA [CACACA_site2212] | 9.28 |
| ATTTTTTTATAATCAACCCATTTCCTACATTTTTAT [CACACA_negctrl_site1237] | 9.48 |
| AAAAAAAATACATACACACACACACGCACATATATA [CACACA_site7645] | 10.4 |

| Sequence | gcPBM binding intensity (ln) |
| --- | --- |
| ATATCTCAACATATCACACATATATATATATAATAT [CACACA_site5018] | 9.42 |
| AATAAATATAAATAAATAAATATATATATATATTTG [CACACA_negctrl_site1486] | 9.04 |
| ATAAAAATATATGAAACACACAGTTTCTATAAGAAA [CACACA_site4156] | 9.22 |
| ATATGTATATAATAAGAACACACATATATTTAATTT [CACACA_site8961] | 9.56 |
| GTTATTAAATAATTCACACACATATATAAATAAATA [CACACA_site7129] | 9.64 |
| TACAATATAATTTAATGTACATGTGAATATATATAT [XGTACX_site4675] | 9.22 |
| TTAAAAAGAGGTGACACACACATATAAATCTAAATC [CACACA_site3738] | 9.83 |
| TAATATACTATAAATACACACAAGTGTACATACTTC [CACACA_site983] | 9.42 |
| TATTAAAAGGTGAGTACACACATATCTGAGTATATA [CACACA_site5192] | 9.42 |
| TTGTGCTAAACAAAAAAAAATATATATAAAAAAATA [XGTACX_negctrl_site388] | 8.95 |
| TCAACGATCACTCGGTGTACTATAAATGAGAGAATT [XGTACX_site1820] | 9.14 |
| AATTTTGAGATGTGGTGTACACAAAATTAGTTAGAC [XGTACX_site7033] | 9.49 |
| AACAATTTTTAAAGGTGTACAATATGTATATAAGAA [XGTACX_site254] | 9.34 |
| ATTAAATTAAAATAATGTACTTAATACTTTTGCTTA [XGTACX_site8404] | 9 |
| ATATATATATATAAAGGTACACATTTATTAAATATA [XGTACX_site7102] | 9.29 |
| TAATATATATAACATATACACACGTTCATATATATA [CACACA_site462] | 9.39 |
| TATTTGCAATATTATACACACATTAGATATTGCAAA [CACACA_site7565] | 9.31 |
| AAAAAAAAAAAAAAATGTACATATATAATATTTATA [XGTACX_site5117] | 9.17 |
| TACAAAATGTTATATCAATATAGATAAAAAAATGAA [XGTACX_negctrl_site285] | 9.14 |
| AACAAATTAATTCTAGTGCAGGACGTATTTGTGTAC [GTGCAC_site9907] | 9.41 |
| AATTAAACTTTGTTTTTGTTTTTTTTTTTTATATTT [CACACA_negctrl_site1316] | 9.25 |
| ATATATATAAATATATGTACATAAATATATTTGTAA [XGTACX_site6715] | 9.16 |

| Sequence | gcPBM binding intensity (ln) |
| --- | --- |
| TCTTTAACAAGTTAAACACACATACCTATATACATA [CACACA_site7237] | 9.3 |
| TGGTGATATACGAAATGTACGCAAATCACAAAATAA [XGTACX_site8836] | 9.15 |
| AAATAAAAATTAAAAAAATAGAAACGAATTGAATGC [TGCATGCA_negctrl_site365] | 9.75 |
| CGCGTATAACGAAATTGTACAAAAAAAATTAAACAT [XGTACX_site6813] | 9.32 |
| TATATATGGAAAAGAGTCAAAAAGAAAAAAGAAAAA [CACACA_negctrl_site1374] | 9.17 |
| TATGAAATATTTATACACAGAACTTCATAATTTTCA [TGCATGCA_negctrl_site509] | 9.04 |
| TTTTTGTATTCTTCTTCTTCCAGACTACATTATGTC [XGTACX_negctrl_site235] | 9.14 |
| ATATATTTAAAATTGACACACATTTAATGACATTTT [CACACA_site3112] | 9.33 |
| TAAGGATATATATATTCACACACACCGGGAAATATA [CACACA_site8020] | 9.93 |
| AAACAAATATATATATGTACTTATAAAAAAAAAAAT [XGTACX_site2211] | 9.34 |
| TTTTTATTTTTTGAAACACACACAAAAAAAATGATA [CACACA_site8564] | 9.41 |
| CATTTTTTGCTTTCAACACACATACAATATATATAA [CACACA_site6127] | 9.46 |
| AAGGATCACGCACAAACACACATATTTATATTTATA [CACACA_site6405] | 9.47 |
| CTTTATTTTTTATACACACACAATATGTATATATAT [CACACA_site3550] | 9.83 |
| CATATAATAAATAATACACACATATTGTAAATATAT [CACACA_site5734] | 9.62 |
| GTAATGAACAAACACAAAAAAAAAAAAAAAATAATA [TGCATGCA_negctrl_site344] | 9.27 |
| AATTGAGTATCGTGAGTGCAAAACGTGGTTCAAAGA | 9.37 |
| TAAAATAAAATAAAATGTACTTTCCTTTTGATAATA [XGTACX_site6288] | 8.86 |
| TTTTCCCTTACAGAAAAAAAAAAATTCCTAACCCCG [CACACA_negctrl_site650] | 9.03 |
| ATATATTTTAGGAGAGTGCATTTAATATTATTTAAT [GTGCAC_site9444] | 9.11 |
| TTATATATTTATAATCGTACAATAATTAACGTAAAA [XGTACX_site3206] | 9.09 |
| TATATGGGATATATGTGTACATATAAAATATGTATC [XGTACX_site3365] | 9.21 |
